From ChEMBL document CHEMBL4888484, “Replenishing the malaria drug discovery pipeline: Screening and hit evaluation of the MMV Hit Generation Library 1 (HGL1) against asexual blood stage Plasmodium falciparum ,using a nano luciferase reporter read-out” (2022)
Among all 150,000 compounds or so, about 540 (0.36%) showed an effect of 50% or more. This is one part of the list.

These compounds were tested on Plasmodium falciparum (assay: Primary screen in NF54 nanoGlo assay, in single point, at 2uM, 72h; a lower Z score goes with more inhibition). Conditions: timepoint 72 hour.
Type: functional, Erythrocyte

| Structure (SMILES) | % Inhibition [%] | Z score |
| --- | --- | --- |
| COc1ccc(Nc2cc(Nc3ccc(OC)cc3)n(C(=O)c3ccc(Cl)cc3)n2)cc1 | 8 | -1.24 |
| CC(NC(=O)c1cn(CC(O)c2ccccc2)nn1)c1ccccc1 (stereo not drawn) | -9 | 1.78 |
| CC1CC1NC(=O)N(C)C(C)c1cnn(C)c1 (stereo not drawn) | 11 | -1.97 |
| O=C(C[C@@H]1CCNC[C@@H]1Cc1cc(-c2ccccn2)on1)N1CCN(c2ccccc2)CC1 | 30 | -3.43 |
| NC(=O)c1c(NC(=O)c2cnccn2)sc2c1CCCCC2 | 3 | -0.51 |
| CC1CN(Cc2nccs2)CC(C)N1Cc1nccs1 (stereo not drawn) | -13 | 2.1 |
| CCOC(=O)C(=O)Nc1cnn(CC)c1C(=O)Nc1cnn(C)c1C | 0 | 0 |
| O=C(O)C[C@H]1COCCN1C(=O)Cn1ccnc1 | -18 | 2.29 |
| CC(C)Cc1ccc(S(=O)(=O)N(CCN2CCN(C)CC2)CC(=O)N2CCNCC2)cc1 | 21 | -2.49 |
| Cc1c2c(C(F)(F)F)cc(=O)n(CCC(=O)Nc3ccc4c(c3)OCCO4)c2nn1C | 38 | -5.08 |
| CC(C)S(=O)(=O)N1CC[C@@]2(CCCN(CC3CC3)C2=O)C1 | 2 | -0.22 |
| CC(C)c1nc(CNC2CCN(c3ccc4c(c3)OCO4)CC2)no1 | 3 | -0.51 |
| CC(C)c1cc(C(=O)N2CCO[C@H](C(=O)O)C2)c2ccccc2n1 | -4 | 0.56 |
| CCc1ncnc(CC)c1C(=O)NC[C@@H]1CNC(=O)C1 | 6 | -1.18 |
| Cc1nc(C(=O)NCc2cccc(N3CCCC3)c2)cs1 | -4 | 0.76 |
| Cc1noc2ncnc(NCCc3noc(C4CCCC4)n3)c12 | -16 | 1.48 |
| CCN(CC)C[C@@H]1OCC(NS(=O)(=O)c2ccc(C)cc2)[C@H]1O (stereo partly drawn) | -3 | 0.53 |
| O=C(NCc1ccc(C2CC2)nc1)NC1CCCC1 | 20 | -2.56 |
| CCc1ccc(CNS(=O)(=O)c2cccc(C(=O)NC3CCC3)c2)nc1 | 2 | -0.31 |
| COC(=O)[C@@H]1C[C@@H](O)CN1Cc1c(C)noc1C | -6 | 0.95 |
| Cc1cscc1C(=O)NC1CN(Cc2ccccc2)CCC1CO (stereo not drawn) | -14 | 2.15 |
| O=C(COc1ccc(Cl)cc1)Nc1cccc(N2Cc3ccccc3C2)c1 | -3 | 0.31 |
| CCn1nc(C)c(C(=O)N(C)CCN(C)Cc2nc(CC(C)C)no2)c1Cl | -4 | 0.58 |
| O=C(CN(Cc1ccco1)C1CS(=O)(=O)CC1O)NCCOc1ccccc1 (stereo not drawn) | 0 | -0.04 |
| O=C1c2ccccc2N[C@H](c2cccc(Cl)c2Cl)N1C1CCCCC1 | 34 | -3.89 |
| CCN1CCN(CC(=O)N2N=C(c3ccc(C)cc3)C[C@H]2c2ccc3c(c2)OCO3)CC1 | -12 | 1.79 |
| O=C(c1ccc(-c2nccs2)cc1)N1CCN(Cc2nnc[nH]2)CC1 | -5 | 0.71 |

| Structure (SMILES) | % Inhibition [%] | Z score |
| --- | --- | --- |
| O=C(O)COc1ccc(-c2cnccn2)cc1CN1CCC[C@H]1c1ccco1 | 0 | -0.04 |
| CCN(Cc1ccc2ccn(CC)c2c1)[C@@H](C)CCO | -10 | 1.27 |
| O=C(Nc1nnc2ccccn12)c1cc2ccccc2o1 | 11 | -1.22 |
| O=C(Cc1ccc(Cl)cc1)N1CCCN(c2nnc3ccc(C(F)(F)F)cn23)CC1 | 27 | -3.04 |
| CN1CC[C@@H]2CN(C(=O)c3cccc(C(F)(F)F)c3)C[C@@H]21 | -16 | 1.46 |
| O=C(CCc1cn[nH]c1)NC[C@H]1CCCc2ccc(C(=O)O)cc21 | -13 | 1.37 |
| O=C(NCC(O)c1c(Cl)cccc1Cl)C1CCOC1 (stereo not drawn) | -15 | 1.51 |
| O=C(CC[C@H]1CCCOC1)NCc1noc(-c2ccsc2)n1 | -9 | 1.33 |
| COCCOCC(=O)N[C@@H](C)c1ccccc1 | -6 | 0.69 |
| CC[C@@H](C(=O)NCCc1sccc1C)n1cccn1 | -9 | 0.94 |
| CC(C)(CN1CCCn2nc(CNC(=O)C3CCC3)cc2C1)N1CCCCC1 | -1 | 0.09 |
| CNC(=O)[C@@H](C)CN(C)c1ncc(F)cn1 | -3 | 0.5 |
| CN(C)CCCC(=O)N1CCc2[nH]nc(-c3ccc4c(c3)OC(F)(F)O4)c2C1 | 4 | -0.49 |
| Cc1ccncc1C(=O)NC[C@@H]1CN(C)C(=O)[C@H](c2ccccc2)N1Cc1cccnc1 | 0 | 0 |
| CC(C)(NC(=O)[C@H]1CC1(C)C)c1ccc(F)c(F)c1 | -3 | 0.56 |
| Cc1nnc(-c2cccc(NC(=O)[C@@H]3CCCCN3Cc3cncs3)c2)s1 | -17 | 2.13 |
| CCCc1cc(C(=O)N2CCc3[nH]nc(-c4cccc5ccccc45)c3C2)[nH]n1 | -14 | 1.35 |
| c1ccc(-c2noc(-c3ccc(NCc4cccs4)nn3)n2)cc1 | 9 | -1.03 |
| O=C1NCCN1CCNCc1cn(CCOc2ccccc2F)c2ccccc12 | -14 | 2.35 |
| CC(C)c1ccc(C=CCC(=O)N(C)[C@H]2CCS(=O)(=O)C2)cc1 | 17 | -1.89 |
| CN(CCc1cccs1)C(=O)[C@H]1CC[C@H](Nc2cnccn2)CC1 | -14 | 1.68 |
| C[C@H](CNCc1nnc(C2CC2)o1)Cc1ccccc1 | -9 | 1.44 |
| Cc1cccc(CS(=O)(=O)N(CCO)C2CC2)c1 | -11 | 0.98 |
| Cc1ccc(-c2noc(Cn3ncn(C)c3=O)n2)cc1 | -3 | 0.51 |
| CCCn1c(CCc2ccc(NS(=O)(=O)c3ccc(F)c(Cl)c3)cc2)nc2ccccc21 | -5 | 0.79 |
| CC(C)c1nnc(CCC(=O)N2CCC[C@H](C)c3ccccc32)o1 | -16 | 1.73 |
| Cc1n[nH]c(C)c1C(=O)NCc1nnc2cc(C(F)(F)F)ccn12 | 23 | -2.95 |
